# Experimental data reported in the supplement of paper PMC8728848.
# This is one part of the list.
# Columns and labels:
# Experiment in all cases: glycan array binding signal (z-score within array); higher = stronger binding
# Settings in all cases: glycan notation: IUPAC condensed, linker removed; mutation: W10H
# [1] = target: Fuc(a1-2)Gal6S(b1-3)GlcNAc
# Summary of the method: (§1)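 The binding signal is a Z-score computed within each array. Data were drawn from 3228 arrays in the Consortium for Functional Glycomics database, restricted to those with a known protein sequence. Scores were averaged over arrays of the same protein sequence at different concentrations or buffers, and over linkers, and negative values can be taken as non-binding.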
# [2] = target: Fuc(a1-2)Gal6S(b1-3)GlcNAc6S
# Summary of the method: as §1
# [3] = target: Fuc(a1-2)Gal6S(b1-4)Glc
# Summary of the method: as §1
# [4] = target: Fuc(a1-2)Gal6S(b1-4)Glc6S
# Summary of the method: as §1
# [5] = target: Fuc(a1-2)[Gal(a1-3)]Gal
# Summary of the method: as §1
# [6] = target: Fuc(a1-2)[Gal(a1-3)]Gal(b1-3)GalNAc
# Summary of the method: as §1
# [7] = target: Fuc(a1-2)[Gal(a1-3)]Gal(b1-3)GalNAc(b1-3)Gal(a1-4)Gal(b1-4)Glc
# Summary of the method: as §1
# [8] = target: Fuc(a1-2)[Gal(a1-3)]Gal(b1-3)GlcNAc
# Summary of the method: as §1
# [9] = target: Fuc(a1-2)[Gal(a1-3)]Gal(b1-3)GlcNAc(b1-2)Man(a1-3)[Fuc(a1-2)[Gal(a1-3)]Gal(b1-3)GlcNAc(b1-2)Man(a1-6)]Man(b1-4)GlcNAc(b1-4)GlcNAc
# Summary of the method: as §1
# [10] = target: Fuc(a1-2)[Gal(a1-3)]Gal(b1-3)GlcNAc(b1-2)Man(a1-3)[Fuc(a1-2)[Gal(a1-3)]Gal(b1-3)GlcNAc(b1-2)Man(a1-6)]Man(b1-4)GlcNAc(b1-4)[Fuc(a1-6)]GlcNAc
# Summary of the method: as §1
# [11] = target: Fuc(a1-2)[Gal(a1-3)]Gal(b1-3)GlcNAc(b1-3)GalNAc
# Summary of the method: as §1
# [12] = target: Fuc(a1-2)[Gal(a1-3)]Gal(b1-3)GlcNAc(b1-6)GalNAc
# Summary of the method: as §1
# [13] = target: Fuc(a1-2)[Gal(a1-3)]Gal(b1-4)Glc
# Summary of the method: as §1
# [14] = target: Fuc(a1-2)[Gal(a1-3)]Gal(b1-4)GlcNAc
# Summary of the method: as §1
# [15] = target: Fuc(a1-2)[Gal(a1-3)]Gal(b1-4)GlcNAc(b1-2)Man
# Summary of the method: as §1
# [16] = target: Fuc(a1-2)[Gal(a1-3)]Gal(b1-4)GlcNAc(b1-2)Man(a1-3)[Fuc(a1-2)[Gal(a1-3)]Gal(b1-4)GlcNAc(b1-2)Man(a1-6)]Man(b1-4)GlcNAc(b1-4)GlcNAc
# Summary of the method: as §1
# [17] = target: Fuc(a1-2)[Gal(a1-3)]Gal(b1-4)GlcNAc(b1-2)Man(a1-3)[Fuc(a1-2)[Gal(a1-3)]Gal(b1-4)GlcNAc(b1-2)Man(a1-6)]Man(b1-4)GlcNAc(b1-4)[Fuc(a1-6)]GlcNAc
# Summary of the method: as §1
# [18] = target: Fuc(a1-2)[Gal(a1-3)]Gal(b1-4)GlcNAc(b1-3)GalNAc
# Summary of the method: as §1
# [19] = target: Fuc(a1-2)[Gal(a1-3)]Gal(b1-4)GlcNAc(b1-3)[Fuc(a1-2)[Gal(a1-3)]Gal(b1-4)GlcNAc(b1-6)]GalNAc
# Summary of the method: as §1
# [20] = target: Fuc(a1-2)[Gal(a1-3)]Gal(b1-4)GlcNAc(b1-6)GalNAc
# Summary of the method: as §1
# [21] = target: Fuc(a1-2)[Gal(a1-3)]Gal(b1-4)[Fuc(a1-3)]Glc
# Summary of the method: as §1
# [22] = target: Fuc(a1-2)[Gal(a1-3)]Gal(b1-4)[Fuc(a1-3)]GlcNAc
# Summary of the method: as §1
# [23] = target: Fuc(a1-2)[Gal(a1-3)]Gal(b1-4)[Fuc(a1-3)]GlcNAc(b1-3)GalNAc
# Summary of the method: as §1
# [24] = target: Fuc(a1-2)[Gal(a1-4)]Gal(b1-4)GlcNAc
# Summary of the method: as §1
# [25] = target: Fuc(a1-2)[GalNAc(a1-3)]Gal
# Summary of the method: as §1
# [26] = target: Fuc(a1-2)[GalNAc(a1-3)]Gal(b1-3)GalNAc(a1-3)[Fuc(a1-2)]Gal(b1-4)GlcNAc
# Summary of the method: as §1
# [27] = target: Fuc(a1-2)[GalNAc(a1-3)]Gal(b1-3)GalNAc(b1-3)Gal(a1-4)Gal(b1-4)Glc
# Summary of the method: as §1
# [28] = target: Fuc(a1-2)[GalNAc(a1-3)]Gal(b1-3)GlcNAc
# Summary of the method: as §1
# [29] = target: Fuc(a1-2)[GalNAc(a1-3)]Gal(b1-3)GlcNAc(b1-2)Man(a1-3)[Fuc(a1-2)[GalNAc(a1-3)]Gal(b1-3)GlcNAc(b1-2)Man(a1-6)]Man(b1-4)GlcNAc(b1-4)GlcNAc
# Summary of the method: as §1
# [30] = target: Fuc(a1-2)[GalNAc(a1-3)]Gal(b1-3)GlcNAc(b1-2)Man(a1-3)[Fuc(a1-2)[GalNAc(a1-3)]Gal(b1-3)GlcNAc(b1-2)Man(a1-6)]Man(b1-4)GlcNAc(b1-4)[Fuc(a1-6)]GlcNAc
# Summary of the method: as §1
# [31] = target: Fuc(a1-2)[GalNAc(a1-3)]Gal(b1-3)GlcNAc(b1-3)GalNAc
# Summary of the method: as §1
# [32] = target: Fuc(a1-2)[GalNAc(a1-3)]Gal(b1-3)GlcNAc(b1-6)GalNAc
# Summary of the method: as §1
# [33] = target: Fuc(a1-2)[GalNAc(a1-3)]Gal(b1-4)Glc
# Summary of the method: as §1
# [34] = target: Fuc(a1-2)[GalNAc(a1-3)]Gal(b1-4)GlcNAc
# Summary of the method: as §1
# [35] = target: Fuc(a1-2)[GalNAc(a1-3)]Gal(b1-4)GlcNAc(b1-2)Man
# Summary of the method: as §1
# [36] = target: Fuc(a1-2)[GalNAc(a1-3)]Gal(b1-4)GlcNAc(b1-2)Man(a1-3)[Fuc(a1-2)[GalNAc(a1-3)]Gal(b1-4)GlcNAc(b1-2)Man(a1-6)]Man(b1-4)GlcNAc(b1-4)GlcNAc
# Summary of the method: as §1
# [37] = target: Fuc(a1-2)[GalNAc(a1-3)]Gal(b1-4)GlcNAc(b1-2)Man(a1-3)[Fuc(a1-2)[GalNAc(a1-3)]Gal(b1-4)GlcNAc(b1-2)Man(a1-6)]Man(b1-4)GlcNAc(b1-4)[Fuc(a1-6)]GlcNAc
# Summary of the method: as §1
# [38] = target: Fuc(a1-2)[GalNAc(a1-3)]Gal(b1-4)GlcNAc(b1-3)Gal(b1-4)GlcNAc
# Summary of the method: as §1
# [39] = target: Fuc(a1-2)[GalNAc(a1-3)]Gal(b1-4)GlcNAc(b1-3)Gal(b1-4)GlcNAc(b1-3)Gal(b1-4)GlcNAc
# Summary of the method: as §1
# [40] = target: Fuc(a1-2)[GalNAc(a1-3)]Gal(b1-4)GlcNAc(b1-3)GalNAc
# Summary of the method: as §1
# [41] = target: Fuc(a1-2)[GalNAc(a1-3)]Gal(b1-4)GlcNAc(b1-3)[Fuc(a1-2)[GalNAc(a1-3)]Gal(b1-4)GlcNAc(b1-6)]GalNAc
# Summary of the method: as §1
# [42] = target: Fuc(a1-2)[GalNAc(a1-3)]Gal(b1-4)GlcNAc(b1-6)GalNAc
# Summary of the method: as §1
# [43] = target: Fuc(a1-2)[GalNAc(a1-3)]Gal(b1-4)[Fuc(a1-3)]GlcNAc
# Summary of the method: as §1
# [44] = target: Fuc(a1-2)[GalNAc(a1-3)]Gal(b1-4)[Fuc(a1-3)]GlcNAc(b1-3)GalNAc
# Summary of the method: as §1
# [45] = target: Fuc(a1-2)[GalNAc(a1-4)]Gal(b1-4)GlcNAc
# Summary of the method: as §1
binder,measurement,setting,value
Banana lectin (Musa acuminata) (protein) MNGAIKVGAHGGNGGSAFDMGPAYRIISVKIFSGDVVDGVDVTFTYYGKTETRHYGGSGGTPHEIVLQEGEYLVGMAGEVANYHGAVVLGKLGFSTNKKAYGPFGNTGGTPFSLPIAAGKISGFFGRGGKFLDAIGVYLEPLEHHHHHH,glycan array binding signal (z-score),[1],-0.194
same,glycan array binding signal (z-score),[2],-0.145
same,glycan array binding signal (z-score),[3],-0.195
same,glycan array binding signal (z-score),[4],-0.169
same,glycan array binding signal (z-score),[5],-0.165
same,glycan array binding signal (z-score),[6],-0.151
same,glycan array binding signal (z-score),[7],-0.115
same,glycan array binding signal (z-score),[8],-0.151
same,glycan array binding signal (z-score),[9],-0.027
same,glycan array binding signal (z-score),[10],0.161
same,glycan array binding signal (z-score),[11],-0.17
same,glycan array binding signal (z-score),[12],-0.147
same,glycan array binding signal (z-score),[13],-0.175
same,glycan array binding signal (z-score),[14],-0.172
same,glycan array binding signal (z-score),[15],-0.169
same,glycan array binding signal (z-score),[16],-0.132
same,glycan array binding signal (z-score),[17],0.24
same,glycan array binding signal (z-score),[18],-0.211
same,glycan array binding signal (z-score),[19],-0.183
same,glycan array binding signal (z-score),[20],-0.146
same,glycan array binding signal (z-score),[21],-0.137
same,glycan array binding signal (z-score),[22],-0.168
same,glycan array binding signal (z-score),[23],-0.15
same,glycan array binding signal (z-score),[24],-0.211
same,glycan array binding signal (z-score),[25],-0.143
same,glycan array binding signal (z-score),[26],-0.191
same,glycan array binding signal (z-score),[27],-0.156
same,glycan array binding signal (z-score),[28],-0.171
same,glycan array binding signal (z-score),[29],-0.144
same,glycan array binding signal (z-score),[30],0.421
same,glycan array binding signal (z-score),[31],-0.184
same,glycan array binding signal (z-score),[32],-0.161
same,glycan array binding signal (z-score),[33],-0.196
same,glycan array binding signal (z-score),[34],-0.175
same,glycan array binding signal (z-score),[35],-0.167
same,glycan array binding signal (z-score),[36],-0.046
same,glycan array binding signal (z-score),[37],0.133
same,glycan array binding signal (z-score),[38],-0.186
same,glycan array binding signal (z-score),[39],-0.199
same,glycan array binding signal (z-score),[40],-0.145
same,glycan array binding signal (z-score),[41],-0.176
same,glycan array binding signal (z-score),[42],-0.215
same,glycan array binding signal (z-score),[43],-0.161
same,glycan array binding signal (z-score),[44],-0.14
same,glycan array binding signal (z-score),[45],-0.151
